# Measurements taken from paper PMC4336329 (PLoS ONE, 2015).
# The campaign covered roughly 310,000 compounds. About 14,000 (4.5%) showed an effect of 50% or more. The effect is printed as a negative number. The list shows a part of the results.
# Target: human ether-à-go-go-related gene (hERG) potassium channel (human, UniProt Q12809)
# Test: primary screen, population patch clamp on CHO cells stably expressing hERG
# 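Further: peak tail current of the secondary pulse compared with the same well before compound.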
# Sequence of human ether-à-go-go-related gene (hERG) potassium channel (Q12809 whole entry, looked up): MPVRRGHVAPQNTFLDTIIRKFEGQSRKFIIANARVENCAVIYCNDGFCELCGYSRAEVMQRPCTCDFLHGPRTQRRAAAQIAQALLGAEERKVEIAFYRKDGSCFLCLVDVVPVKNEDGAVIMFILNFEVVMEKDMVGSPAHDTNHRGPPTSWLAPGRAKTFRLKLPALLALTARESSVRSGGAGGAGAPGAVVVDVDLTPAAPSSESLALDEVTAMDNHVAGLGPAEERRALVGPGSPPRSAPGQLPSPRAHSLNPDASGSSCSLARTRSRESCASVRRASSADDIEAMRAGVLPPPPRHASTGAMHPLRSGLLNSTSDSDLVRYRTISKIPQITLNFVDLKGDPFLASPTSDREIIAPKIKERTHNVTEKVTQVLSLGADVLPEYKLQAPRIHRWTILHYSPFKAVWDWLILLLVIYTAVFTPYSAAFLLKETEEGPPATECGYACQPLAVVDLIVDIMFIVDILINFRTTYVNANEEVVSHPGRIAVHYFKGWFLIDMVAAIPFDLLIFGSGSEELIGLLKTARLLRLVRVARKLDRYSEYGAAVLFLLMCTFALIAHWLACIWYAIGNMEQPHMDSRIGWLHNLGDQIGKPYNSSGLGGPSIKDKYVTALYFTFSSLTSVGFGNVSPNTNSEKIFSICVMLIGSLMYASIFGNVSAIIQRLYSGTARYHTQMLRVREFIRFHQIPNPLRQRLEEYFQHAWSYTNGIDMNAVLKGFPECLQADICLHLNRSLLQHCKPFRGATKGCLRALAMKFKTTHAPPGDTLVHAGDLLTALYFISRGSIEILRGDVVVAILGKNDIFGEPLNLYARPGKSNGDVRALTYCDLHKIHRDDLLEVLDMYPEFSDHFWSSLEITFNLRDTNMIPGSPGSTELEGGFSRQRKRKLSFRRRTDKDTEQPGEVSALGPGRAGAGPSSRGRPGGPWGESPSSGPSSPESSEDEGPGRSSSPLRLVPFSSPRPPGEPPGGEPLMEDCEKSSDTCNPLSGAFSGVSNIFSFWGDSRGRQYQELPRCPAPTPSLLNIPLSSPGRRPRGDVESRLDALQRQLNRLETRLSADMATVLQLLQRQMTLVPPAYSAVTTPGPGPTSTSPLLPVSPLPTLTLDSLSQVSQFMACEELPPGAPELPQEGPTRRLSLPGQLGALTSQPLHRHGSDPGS
row,Compound,"hERG current change (%, negative = inhibition) at 10uM"
1,O=C(NCCCl)Nc1cccc(Br)c1,6.3%
2,Cc1cccc(N(C(=O)c2csnn2)C(C(=O)NC(C)(C)C)c2ccncc2)c1 (stereo not shown),0.743%
3,Cc1nnc(SCC(=O)NC2CCCc3c2cnn3-c2ccccc2F)o1 (stereo not shown),20.5%
4,CCn1c(CC(=O)Nc2ccc(C)cc2)nnc1SCC(=O)NCc1ccccc1,4.42%
5,N#Cc1cnn2c3c(cnc12)C(=O)N1CCc2ccccc2C1C3 (stereo not shown),-11.3%
6,CCOc1ccc(NC(=O)COC(=O)COc2cccc3c2OC(C)(C)C3)cc1,9.57%
7,CCCC(=O)NC(NC(=S)Nc1c(C)n(C)n(-c2ccccc2)c1=O)C(Cl)(Cl)Cl (stereo not shown),0.602%
8,CN1CCN(C(=O)N2c3ccccc3CCc3ccccc32)CC1,11.9%
9,COC(=O)N/N=C/c1cc(C)n(-c2ccccc2)c1C,16.1%
10,O=C(c1cccc(F)c1)N1CCN(S(=O)(=O)c2ccccc2)CC1,0.349%
11,O=C(Nc1ccc(C(=O)Oc2ccccc2)c(O)c1)c1ccco1,2.5%
12,COc1ccc(/C=C\C(=O)Oc2cccc(/C=N/NC(=O)Cc3ccc(OC)c(OC)c3)c2)cc1,1.34%
13,CN(CCC#N)C(=S)NC(=O)c1ccc(S(=O)(=O)N2CCOCC2)cc1,23.7%
14,Cc1cc(=O)[nH]c(N2CCCC2)n1,22.4%
15,CC(C)Oc1ccc(C2CC(=O)N(c3cccc(/C=C/C(=O)O)c3)C2=O)cc1 (stereo not shown),22.3%
16,O=C(NCCc1ccccc1)C(=O)N/N=C/c1ccc2c(c1)OCO2,-7%
17,COc1ccc(CC(=O)Nc2cccc(S(=O)(=O)N3CCCC3)c2)cc1OC,-3.58%
18,CCCCCc1nnc(NC(=O)Cc2cccs2)s1,4.6%
19,Cc1ccnc(NS(=O)(=O)c2ccc(NC(=O)C3CCCCC3C(=O)O)cc2)n1 (stereo not shown),21.5%
20,Cc1ccc2cc3cc(C(=O)NCCCN4CCc5ccccc5C4)oc3nc2c1,-54.9%
21,CN(c1ccccc1)S(=O)(=O)c1ccc(C(=O)NCCc2ccccc2)cc1,19.6%
22,CCOc1ccc2nc(N3C(=O)CNC3=S)sc2c1,1.72%
23,CC1CCCC(NC(=O)C2N(CCCN3CCCC3)C(=O)C3C(C(=O)Nc4ccc(Cl)cc4)C4C=CC32O4)C1C (stereo not shown),1.89%

row,Compound,"hERG current change (%, negative = inhibition) at 10uM"
1,CN1C(=O)CSc2ccc(NC(=O)Nc3ccccn3)cc21,2.02%
2,COc1cc(C(=O)N2CCN(c3ccccc3)CC2)c([N+](=O)[O-])cc1OC,10.7%
3,N#C/C(=C\Nc1ccc(F)c(Cl)c1)S(=O)(=O)c1ccccn1,-6.01%
4,O=C(c1cccc(Cl)c1)C1CCCN(S(=O)(=O)c2ccccc2)C1 (stereo not shown),4.23%
5,CC(C)c1ccc(/C=C/c2ccc(=O)n(C)n2)cc1,-23.2%
6,COc1cc(C)c(C#N)c(OC)n1,7.96%
7,C=CCn1cc(C(=O)N2CCN(C)CC2)c(=O)c2cc(S(=O)(=O)N(CC)CC)ccc21,3.85%
8,O=C(O)C(=O)O.O=[N+]([O-])c1cccc(CN2CCN(Cc3ccc(Br)cc3)CC2)c1,-72.4%
9,O=C(c1ccc2snnc2c1)N1CCCCC1,8.38%
10,c1ccc(-n2nnnc2NC2CCCCC2)cc1,11%
11,COc1ccc(C(=O)NNC(=S)NC(=O)c2cc(-c3ccccc3)nc3ccccc23)cc1,9.22%
12,COc1cc(/C=N/NC(=O)c2cccc([N+](=O)[O-])c2)ccc1O,-28.3%
13,C=CCOc1cccc(CNCCCN2CCOCC2)c1.Cl,6.15%
14,O=C(O)C(Cc1ccccc1)n1cnnn1 (stereo not shown),7.85%
15,CN1CC[n+]2c(CN3C(=O)c4ccccc4C3=O)csc21.[I-],13.5%
16,Cn1c(=O)c(N)c2c3c(c(Br)ccc31)C(=O)c1ccccc1-2,-16.6%
17,Clc1ccc(Oc2cccc(/C=N/n3cnnc3)c2)cc1,-27.8%
18,O=C(CCn1cccn1)Nc1ccc2c(c1)OCCO2,4.66%
19,COC(=O)c1ccccc1NC(=O)CN(Cc1ccccc1)S(C)(=O)=O,-3.52%
20,O=C(CSc1ccc2ccccc2n1)NCCC1=CCCCC1,-0.0904%
21,Cn1c(SCC(=O)c2ccccc2)nnc1C1CC1,-1.41%
22,Cc1ccc(NS(=O)(=O)c2ccc(-c3cnc(C4CC4)o3)cc2)cc1,21.2%
23,CC(=O)Oc1ccc(C(=O)Nn2cnnc2)cc1,-6.92%

row,Compound,"hERG current change (%, negative = inhibition) at 10uM"
1,Cc1cc(C)c(NC(=O)CCCn2c(=O)oc3ccccc32)c(C)c1,-2.3%
2,CCOc1ccccc1NC(=O)CSc1nnc(-c2cccnc2)o1,-24.8%
3,CC/C(=N\NC(=S)NC(C)C)c1ccc(OC)c(OC)c1,-17.9%
4,COc1ccc(C(=O)Nc2cccc(C(C)=O)c2)cc1OC,-2.4%
5,Oc1ccccc1-c1cc(-c2ccccc2Cl)[nH]n1,5.05%
6,CCOC(=O)/C(=C/c1ccc(Cl)cc1)NC(=O)c1ccco1,-38.8%
7,COc1ccc(/C=C2\CCCc3c2nc2ccccc2c3C(=O)OCC(=O)c2c(N)n(C)c(=O)n(C)c2=O)cc1,3.7%
8,COc1cccc(C(=O)Nc2cccc3ccccc23)c1,16.8%
9,COc1cccc(CNc2nc3nc(C)c(Cl)c(C)n3n2)c1,-57.9%
10,CC(C)C1C(c2ccccc2)NC(c2ccccc2)CC1(O)c1ccc(F)cc1.Cl (stereo not shown),6.25%
11,CC1Cc2ccccc2N1C(=O)CN1C(=O)NC(C)(c2ccc3c(c2)OCCO3)C1=O (stereo not shown),1.12%
12,COc1ccc(S(=O)(=O)N2CCCOC2CNC(=O)C(=O)NC2CCCC2)cc1 (stereo not shown),4.51%
13,COc1ccc(N2CCN(C(=O)CSc3nc(C)cs3)CC2)cc1,-1.29%
14,COC(=O)c1nccnc1C(=O)Nc1ccccc1N1CCOCC1,9.61%
15,COc1ccccc1N(CC(=O)NCC1CCCO1)C(=O)CNS(=O)(=O)c1ccccc1 (stereo not shown),-0.369%
16,O=C(c1cccs1)N1CC=C(c2ccccc2)CC1,-14.5%
17,CC(=O)Nc1cc(OC(=O)c2ccco2)cc(OC(=O)c2ccco2)c1,-15.1%
18,Cc1ccc2c(CN3CCCCC3C)cc(=O)oc2c1.Cl (stereo not shown),-41.3%
19,COc1ccc(C(=O)/C=C/c2cccc(OCc3ccccc3)c2)cc1CSCC(=O)O,7.09%
20,CS(=O)(=O)N1CCN(C(=S)NCc2ccc(F)cc2)CC1,15.8%
21,Cl.c1ccc(Cn2nnnc2C(c2cccs2)N2CCc3ccccc3C2)cc1 (stereo not shown),0.489%
22,COC(=O)c1cccc(COC(=O)c2ccccc2NC(=O)c2ccco2)c1,9.74%
23,CCCNC(C)(C)COC(=O)c1ccccc1.Cl,7.55%

row,Compound,"hERG current change (%, negative = inhibition) at 10uM"
1,Cc1ncsc1C(=O)NCc1ccc(N2CCCC2=O)cc1,-1.49%
2,O=C(NNC(=O)c1ccccc1O)c1cc2ccccc2o1,2.41%
3,CCn1c(=NC(=O)CS(=O)(=O)c2ccc(C)cc2)sc2cccc(OC)c21,-0.869%
4,CCOc1ncccc1C(=O)NCC(c1ccccc1)N(C)C (stereo not shown),-22.4%
5,O=[N+]([O-])c1cc([N+](=O)[O-])c(Oc2c(F)cccc2F)cc1NN1CCCCC1,4.44%
6,COc1cc2c(cc1OC)CN(C(=O)CN1CCN(S(=O)(=O)c3ccc(C)c(C)c3)CC1)CC2,-40.9%
7,COc1ccc(C2C(C#N)=C(C)NC3=C2C(=O)c2ccccc23)cc1 (stereo not shown),6.49%
8,O=C(Nn1cnnc1)c1ccncc1,-9.28%
9,Cc1ccc(N=N/C(=C\O)C(=O)c2ccc(Cl)cc2)cc1,14.1%
10,CCc1cc(C(=O)Cc2nc3ccccc3[nH]2)c(O)cc1O,8.34%
11,CN(C)S(=O)(=O)c1ccc(NC(=O)c2ccncc2)cc1,10.5%
12,COc1ccc(C(NC(C)=O)c2cc(Cl)c3cccnc3c2O)cc1OC (stereo not shown),8.49%
13,NS(=O)(=O)c1ccc(CCNC(=O)c2ccccc2-c2ccccc2)cc1,0.242%
14,Cc1ccccc1/C=C\c1nc2ccccc2c(=O)[nH]1,10.5%
15,C=CCN1CC(C)/C(=N\O)CC1C (stereo not shown),9.96%
16,CC(=O)Nc1ccc(S(=O)(=O)N/N=C/c2ccc(C)o2)cc1,10.2%
17,Cc1nc2scc(-c3cccs3)c2c(=O)n1CC(=O)O,5.83%
18,COCCn1cnc2c1c(=O)n(Cc1c(F)cccc1Cl)c(=O)n2Cc1ccccc1,-7.35%
19,COC(=O)CNC(=O)c1c(C)cc(=O)oc1C,8.37%
20,COC(=O)CN(c1ccccc1F)S(=O)(=O)c1ccc(C)cc1,1.82%
21,COC(=O)c1ccccc1NC(=S)N1CCN(C2CCCCC2)CC1,-22.4%
22,CCN(CC)CCN(C(=O)c1ccc(S(=O)(=O)N2CCCC2)cc1)c1nc2cc(C)cc(C)c2s1.Cl,-44.1%
